Experiment in all cases: glycan array binding signal (z-score within array); higher = stronger binding
Holding throughout (settings): glycan notation: IUPAC condensed, linker removed

Test [1] concerns the target Gal(b1-4)GlcNAc(b1-2)Man(a1-6)[Man(a1-3)]Man(b1-4)GlcNAc(b1-4)GlcNAc. An outline of the steps: (§1)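 Columns mapping to the same glycan were averaged after glycan names were converted to IUPAC-condensed notation. The data come from 3228 arrays in the Consortium for Functional Glycomics database, limited to those with an available protein sequence. Binding is reported as a within-array Z-score averaged across arrays of one protein sequence and across linkers.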

Test [2] concerns the target Gal(b1-4)GlcNAc(b1-2)[Gal(b1-4)GlcNAc(b1-4)]Man(a1-3)[Gal(b1-4)GlcNAc(b1-2)Man(a1-6)]Man(b1-4)GlcNAc(b1-4)GlcNAc. The method, boiled down: as §1
Test [3] addresses Gal(b1-4)GlcNAc(b1-2)[Gal(b1-4)GlcNAc(b1-4)]Man(a1-3)[Gal(b1-4)GlcNAc(b1-2)[Gal(b1-4)GlcNAc(b1-6)]Man(a1-6)]Man(b1-4)GlcNAc(b1-4)GlcNAc. An outline of the steps: as §1
For test [4], the target named is Gal(b1-4)GlcNAc(b1-2)[Gal(b1-4)GlcNAc(b1-4)]Man(a1-3)[GlcNAc(b1-4)][Gal(b1-4)GlcNAc(b1-2)Man(a1-6)]Man(b1-4)GlcNAc(b1-4)GlcNAc. An outline of the steps: as §1
For test [5], the target named is Gal(b1-4)GlcNAc(b1-2)[Gal(b1-4)GlcNAc(b1-4)]Man(a1-3)[GlcNAc(b1-4)][Gal(b1-4)GlcNAc(b1-2)[Gal(b1-4)GlcNAc(b1-6)]Man(a1-6)]Man(b1-4)GlcNAc(b1-4)GlcNAc. An outline of the steps:
as §1

For test [6], the target named is Gal(b1-4)GlcNAc(b1-2)[Gal(b1-4)GlcNAc(b1-6)]Man(a1-6)[Gal(b1-4)GlcNAc(b1-2)Man(a1-3)]Man(b1-4)GlcNAc(b1-4)GlcNAc. An outline of the steps: as §1
In test [7] the target is Gal(b1-4)GlcNAc(b1-2)[Gal(b1-4)GlcNAc(b1-6)]Man(a1-6)[Gal(b1-4)GlcNAc(b1-2)Man(a1-3)]Man(b1-4)GlcNAc(b1-4)[Fuc(a1-6)]GlcNAc. An outline of the steps: as §1
For test [8], the target named is Gal(b1-4)GlcNAc(b1-2)[Gal(b1-4)GlcNAc(b1-6)]Man(a1-6)[GlcNAc(b1-4)][Gal(b1-4)GlcNAc(b1-2)Man(a1-3)]Man(b1-4)GlcNAc(b1-4)GlcNAc. The method, boiled down: as §1
Test [9] addresses Gal(b1-4)GlcNAc(b1-2)[Gal(b1-4)GlcNAc(b1-6)]Man(a1-6)[GlcNAc(b1-4)][Gal(b1-4)GlcNAc(b1-2)[Gal(b1-4)GlcNAc(b1-4)]Man(a1-3)]Man(b1-4)GlcNAc(b1-4)[Fuc(a1-6)]GlcNAc. An outline of the steps: as §1
In test [10] the target is Gal(b1-4)GlcNAc(b1-3)Gal(b1-3)GalNAc. An outline of the steps:
as §1

For test [11], the target named is Gal(b1-4)GlcNAc(b1-3)Gal(b1-3)GlcNAc. The method, boiled down:
as §1

Test [12] has as its target Gal(b1-4)GlcNAc(b1-3)Gal(b1-4)Glc. An outline of the steps: as §1
Test [13] concerns the target Gal(b1-4)GlcNAc(b1-3)Gal(b1-4)GlcNAc. The method, boiled down:
as §1

Test [14] addresses Gal(b1-4)GlcNAc(b1-3)Gal(b1-4)GlcNAc(b1-2)Man(a1-3)[Gal(b1-4)GlcNAc(b1-3)Gal(b1-4)GlcNAc(b1-2)Man(a1-6)]Man(b1-4)GlcNAc(b1-4)GlcNAc. The method, boiled down: as §1
Test [15] has as its target Gal(b1-4)GlcNAc(b1-3)Gal(b1-4)GlcNAc(b1-2)Man(a1-3)[Gal(b1-4)GlcNAc(b1-3)Gal(b1-4)GlcNAc(b1-2)Man(a1-6)]Man(b1-4)GlcNAc(b1-4)[Fuc(a1-6)]GlcNAc. The method, boiled down:
as §1

The target in test [16] is Gal(b1-4)GlcNAc(b1-3)Gal(b1-4)GlcNAc(b1-2)[Gal(b1-4)GlcNAc(b1-3)Gal(b1-4)GlcNAc(b1-6)]Man(a1-6)[Gal(b1-4)GlcNAc(b1-3)Gal(b1-4)GlcNAc(b1-2)Man(a1-3)]Man(b1-4)GlcNAc(b1-4)GlcNAc. An outline of the steps:
as §1

The target in test [17] is Gal(b1-4)GlcNAc(b1-3)Gal(b1-4)GlcNAc(b1-2)[Gal(b1-4)GlcNAc(b1-3)Gal(b1-4)GlcNAc(b1-6)]Man(a1-6)[Gal(b1-4)GlcNAc(b1-3)Gal(b1-4)GlcNAc(b1-2)Man(a1-3)]Man(b1-4)GlcNAc(b1-4)[Fuc(a1-6)]GlcNAc. An outline of the steps:
as §1

Test [18] addresses Gal(b1-4)GlcNAc(b1-3)Gal(b1-4)GlcNAc(b1-3)Gal(b1-4)GlcNAc. The method, boiled down:
as §1

The list shows a part of the results.

B1: PX15618A-bth-503-24-503 (Bacteroides thetaiotaomicron) (protein)
chain: NKSEDKLSGDDFWAQGNETNAEAFLLSIYNSFRNATMSQRPFLTYSGDMRCAPITAYSTGDKYVAYLANNDMGELRNTYPDDARGGLIMQWDVFYTAIQDANILLAEIDKVPGMDELKRSRFKAEAIFMRSLSYFFIVRAFGDVPYYTNAYNEAPLPRTNMVIVLQNCLADLQPLLDDDPGAEVLPWSYSSYSSKGIRASRGSVIALMMHINLWLVQFDAQNKEQYYRNVVSLGEELERNNGAYSLLDINRSSVIFAGGSDEGLFEIAQNINFNEIFMMNAKFSDNVSYSCLNKSMPLFCYSGDYLMTLFPMYEDDARKELWFDEKIYSTSVSSSAPKEIKKFWNIDTYGNGTITSNSGNQIVFRYAGALLLYAEALAALGTNDTKACELLNRVRNRAHASEINTSGSELMDAIFWERCRELIGEGHYYYDLVRTGKVYNRNYCMNPMTRTNFNVGAWTWPIHRNALKNNTQIGLNLFWE
On to B1, for which the “glycan array binding signal (z-score)” value was 12.1 in test [1]; 0.158 in test [2]; -0.519 in [3]; -0.247 in test [4]; -0.272 in [5]; 1.01 in test [6]. Further, the “glycan array binding signal (z-score)” value in test [7] was 1.93; in test [8], 0.56; in test [9], 0.015; in test [10], -0.241; in [11], -0.548; in test [12], -0.181. The “glycan array binding signal (z-score)” value in [13] is -0.173; in test [14] it was 0.547; in test [15] it was 0.001; in test [16] it was 0.463; in [17], 0.652; in [18] it was -0.233.

(Values after the supplement of paper PMC8728848.)
